Where “and” joins values, the source holds several entries; their conditions need not be identical. Identical values can stand only once. Among all 1,200 compounds or so, about 30 (2%) were called active. Not shown: some 23% with an inconclusive outcome. The call rests on the fitted dose curve; in most records, active means well fitted inhibition curve with a large enough effect; inconclusive means small, poorly fitted or top-dose-only effect; inactive means flat fitted curve, though single readings scatter. The list shows a part of the results.
What follows are compounds tested against Single-stranded DNA cytosine deaminase (Homo sapiens) (UniProt Q9GZX7) (assay: Confirmatory qHTS assay for inhibitors of Activation Induced Cytidine Deaminase (AID): AID signals). Conditions: recombinant AID, FRET deamination/UDG coupled fluorescence, 4 h; series mostly up to 115 µM; activity, negative = inhibition: at the top concentration.
Chain of UniProt Q9GZX7 (Q9GZX7 whole entry, looked up): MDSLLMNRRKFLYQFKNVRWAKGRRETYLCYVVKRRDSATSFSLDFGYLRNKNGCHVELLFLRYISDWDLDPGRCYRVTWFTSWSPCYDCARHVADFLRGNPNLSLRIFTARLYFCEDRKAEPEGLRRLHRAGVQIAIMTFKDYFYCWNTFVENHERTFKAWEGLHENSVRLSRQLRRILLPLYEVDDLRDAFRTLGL
Outline: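 Read 1 (AID) was measured at 540 ex/590 em after a 30 min NaOH step. The reaction was AID (1 uM, 4/3x stock) with UDG, compound at final 7.32 nM - 114 uM for 10 min, then DJC20/DJC23 substrate for 4 hr at room temperature. A UDG read at 560/665 serves as counterscreen.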
On the % scale 0 is the no-effect control and ±100 the full control effect; potency means the concentration at half of the fitted maximal effect.

Compound	activity, negative = inhibition	Potency
CSc1cccc(NC(=O)CC(c2cccs2)N2Cc3ccccc3C2=O)c1 (stereo not drawn)	inactive: -5.77%	
CCCCN(CCCC)CCNC(=O)c1cn(CC)c2ccc(S(=O)(=O)N3CCc4ccccc4C3)cc2c1=O	inactive: -29%	
Cc1ccc(C)c(CSc2ccc3nnc(CCNS(=O)(=O)c4ccccc4)n3n2)c1	inactive: -16.2%	
Cc1cccc(CSc2ccc3nnc(CCNS(=O)(=O)c4ccccc4)n3n2)c1	inactive: -23.8%	
O=C(NCCc1csc(-c2ccc(Cl)cc2)n1)c1cccs1	inactive: -18.5%	
CCN(CC)C(=O)CSc1nc(-c2ccccc2F)nc2c1Cc1c(CO)cnc(C)c1O2	inactive: -20.7%	
CN(c1ncnc2onc(-c3cccc(Cl)c3)c12)C1CCCCC1	inactive: -20.3%	
Cc1cccc(C)c1-n1ncc(C(=O)N2CCN(c3ccccc3)CC2)c1C1CCN(C(=O)OC(C)(C)C)CC1	inactive: -20.5%	
Cc1nc2nc(SCC(=O)NCc3ccccc3Cl)nn2c(C)c1Cc1ccccc1	inactive: -17.7%	
Fc1cc(Br)ccc1Nc1c2c(nc3nc(-c4cccs4)nn13)CCCC2	inactive: -13.6%	
CCn1cc(C(=O)NCc2ccccc2OC)c(=O)c2cc(S(=O)(=O)N3CCCCC3)ccc21	inactive: -17.3%	
Cc1ccc(-c2noc(CN(C(=O)c3ccc(C(C)(C)C)cc3)C(C)C)n2)cc1	inactive: -14.1%	
Cc1ccc(Nc2c3c(nc4ccccc24)CCC3)cc1F	inactive: -9.11%	
CCOC(=O)C1=C(CN(CC)Cc2ccccc2)NC(=O)NC1c1ccc(Cl)cc1 (stereo not drawn)	inactive: -14%	
CCN(C(=O)c1nn(C)c2c1CSc1ccccc1-2)c1cccc(C)c1	inactive: -6.9%	
Cc1ccc(Cc2nc3ccccc3nc2SCC(=O)N2CCCCC2)cc1	inactive: -2.18%	
COc1ccc(CSc2nc3ccncc3n2Cc2nc(-c3ccc(OC)c(OC)c3)oc2C)cc1	inactive: -8.72%	
Cc1nc2c(-c3ccccc3)c(C)nn2c(C)c1CCC(=O)N1CCN(c2ccc(F)cc2)CC1	inactive: -4.26%	
O=C(NCCc1ccccc1)c1sc2ncccc2c1-n1cccc1	inactive: -19.5%	
Cc1ccccc1-c1nc(CS(=O)CC(=O)N2CCN(c3cc(Cl)ccc3C)CC2)c(C)o1 (stereo not drawn)	inactive: -9.58%	
Cc1[nH]c2ccccc2c1C(c1ccccc1)c1cccs1 (stereo not drawn)	inactive: -10.5%	
Clc1ccc(-c2noc3ncnc(NCCCN4CCN(c5ccccc5)CC4)c23)cc1	inactive: 0.554%	
CCc1ccccc1Nc1nn2c(=O)c3ccc(C(=O)NCc4cccs4)cc3nc2s1	inactive: -5.96%	
CCOc1ccc(-c2nc(CSCC(=O)N3CCN(c4cccc(C(F)(F)F)c4)CC3)c(C)o2)cc1	inactive: -17.9%	

Compound	activity, negative = inhibition	Potency
Clc1cccc(N2CCN(c3ncnc4c3nc3n4CCCCC3)CC2)c1	inactive: -20.2%	
CCc1ccc(NC(=O)c2cc(C(C)=O)n3ccccc23)cc1	inactive: 0.291%	
Cc1cc(C)c(NC(=O)Cn2c(=O)n(Cc3ccc(C(=O)NCc4ccc5c(c4)OCO5)cc3)c(=O)c3ccccc32)c(C)c1	inactive: -29.8%	
Cc1ccc(NC(=O)c2oc3c(c2C)-c2[nH]ncc2CC3)c(Cl)c1	inactive: 29%	
Cn1cc(S(=O)(=O)N2CCCCCC2)cc1C(=O)N1CCN(c2cccc(C(F)(F)F)c2)CC1	inactive: -12.9%	
O=C1CCSC2(C(=O)N(Cc3ccc(F)cc3)c3ccccc32)N1c1cccc(F)c1 (stereo not drawn)	inactive: -1.44%	
CCCCN(C)CC(O)Cn1cc(/C=C/C(=O)c2ccc(C)cc2)c2ccccc21 (stereo not drawn)	inactive: -19.7%	
COc1ccc(N2CCN(C(=O)c3sc4nc5n(c(=O)c4c3C)CCC5)CC2)cc1	inactive: -13.6%	
CCn1cc(C(=O)NCCCOC(C)C)c(=O)c2cc(S(=O)(=O)N(C)C3CCCCC3)ccc21	inactive: -14.5%	
COc1ccccc1N1CCN(CCCNC(=O)c2cnn(-c3ccc(C)c(C)c3)c2C2CCN(C(=O)OC(C)(C)C)CC2)CC1	inactive: -23.4%	
CCOC(=O)C1=C(CN2CCN(c3ccc(C)cc3C)CC2)NC(=O)NC1c1ccc(OC)cc1 (stereo not drawn)	inactive: -26.3%	
Cc1ccc(-n2c(=O)c3oc4ccccc4c3n(Cc3cccc(F)c3)c2=O)cc1C	inactive: -5.86%	
COc1ccc(-c2cc(C(F)(F)F)nc(SCC(=O)N(C)Cc3ccccc3)n2)cc1	inactive: -7.92%	
O=C(NCCn1cc(SCc2ccccc2F)c2ccccc21)c1cccs1	inactive: 13.6%	
COc1cccc(Cn2nnc3c(=O)[nH]c(C4CCN(C(=O)c5ccccc5Cl)CC4)nc32)c1	inactive: -12.1%	
O=C(NCCc1ccccc1Cl)c1sc2ncccc2c1-n1cccc1	inactive: -15.1%	
CN(C)CCNc1ncnc2c1cnn2-c1cccc(Cl)c1	inactive: -20.9%	
Cc1ccc(-n2cc(-c3ccccc3)nc2S(=O)(=O)CC(=O)Nc2ccc(F)cc2)cc1	inactive: -15.7%	
CCc1cccc(-n2c(C)nc3c(cnn3-c3ccc(C)c(C)c3)c2=O)c1	inactive: -7.64%	
COc1cccc2sc(N(Cc3cccnc3)C(=O)Cc3ccccc3)nc12	inactive: 3.59%	
Cc1nc(Nc2ccc(Cl)cc2)cc(-c2ccccc2)n1	inactive: -16.1%	
Cc1ccc(-c2nnc(Nc3ccc(O)cc3)c3ccccc23)cc1S(=O)(=O)NC(C)(C)CO	inactive: -17.1%	
COc1ccc(Nc2cc(C)c3cc(NC(=O)COc4cccc(C)c4)ccc3n2)cc1	inactive: -4.04%	
Cc1ccc(Cl)cc1N1CCN(C(=O)COc2cc(=O)n(C)c3ccccc23)CC1	inactive: -14%	

Compound	activity, negative = inhibition	Potency
COc1ccc(OC)c(NC(=O)CSc2nccn2-c2cc(C)cc(C)c2)c1	inactive: -12.5%	
CCCn1cc(S(=O)(=O)c2ccc(OC)cc2)c(=O)c2cc(F)c(N3CCCCCC3)cc21	inactive: -18%	
CCn1cc(S(=O)(=O)c2ccc(C)cc2C)c(=O)c2cc(F)c(N3CCCC3)cc21	inactive: -13.2%	
COC(=O)c1c(NC(=O)COc2ccc(OC)cc2)sc2c1CCC(C)C2 (stereo not drawn)	inactive: 10.7%	
CCCCn1cc(S(=O)(=O)c2ccccc2)c(=O)c2cc(F)c(N3CCC(C)CC3)cc21	inactive: -5.39%	
Cc1cc(N(C)Cc2ccccc2)n2nc(-c3ccc(C(C)(C)C)cc3)nc2n1	inactive: -20.3%	
Cc1ccc(C(C)C)c(OCC(=O)NCC2(N3CCOCC3)CCCCC2)c1	inactive: -17%	
CCOc1ccc(-c2n[nH]c3c2C(c2ccccc2OC)N(c2ccc(Br)cc2)C3=O)cc1 (stereo not drawn)	inactive: -3.54%	
CCOC(=O)c1ccc(CSc2nnc3cc(C)c4ccccc4n23)cc1	inactive: -26.7%	
CN(C)c1ccc(-c2nnc3n(Cc4ccccc4)c(=O)c4ccccc4n23)cc1	inactive: -21.5%	
Cc1nc2nc(SCC(=O)NCCc3ccc(Cl)cc3)nn2c(C)c1Cc1ccccc1Cl	inactive: -26.8%	
CCc1nn(C(C)C(=O)N2CCN(c3cccc(C(F)(F)F)c3)CC2)c(=O)c2cc3occc3n12 (stereo not drawn)	inactive: -13%	
Cc1ccc(-n2ncc(C(=O)NCCc3ccccc3)c2C2CCN(C(=O)OC(C)(C)C)CC2)c(C)c1	inactive: -16%	
CCc1ccc2c(c1)c(=O)c(S(=O)(=O)c1ccc(Cl)cc1)cn2CC	inactive: -7.45%	
CCOC(=O)C1=C(C)NC(=O)NC1c1cn(-c2ccccc2)nc1-c1ccc(OCC)cc1 (stereo not drawn)	inactive: -11%	
Cc1ccccc1Nc1c(-c2ccc(N3CCOCC3)cc2)nc2ccccn12	inactive: 3.96%	
CC(C)CCN(Cc1ccco1)C(=O)c1cc2c(s1)-c1ccccc1OC2	inactive: -14.3%	
CCc1ccccc1N(C)C(=O)c1sc2nc3n(c(=O)c2c1C)CCCCC3	inactive: -12.4%	
O=C(NCc1cccs1)c1ccc(CSc2nc3ccncc3n2Cc2ccccc2F)cc1	inactive: -4.38%	
Cc1ccc(Cl)cc1N1CCN(C(=O)c2ccc3c(c2)N(Cc2ccccc2)CCS3)CC1	inactive: -5.09%	
Cc1ccc(-c2nc(C(=O)N3CCN(c4ccccc4)CC3)c3n2CCCCC3)cc1	inactive: -10.4%	
Cc1ccc(CN(Cc2ccco2)C(=O)COc2cccc(C)c2C)o1	inactive: -21.8%	
CC(C)(Sc1ccc(CCN(CCCCC2CCCCC2)C(=O)NC2CCCCC2)cc1)C(=O)O		active: 31.6 µM and active: 112 µM
O=C(CN(c1cc(C(F)(F)F)ccc1Cl)S(=O)(=O)c1ccccc1)NCCc1ccccc1	inactive: -2.51%	

Compound	activity, negative = inhibition	Potency
CCCCCn1c(CCCNC(=O)c2cccc(C)c2)nc2ccccc21	inactive: -19.1%	
Cc1ccc(CN(Cc2ccco2)C(=O)c2ccc(Cl)cc2Cl)cc1	inactive: -2.65%	
CCOC(=O)c1c(C)oc2nc(C)nc(N3CCN(c4ccccc4F)CC3)c12	inactive: -4.5%	
Cc1[nH]n2c(=O)cc(-c3ccc(Cl)cc3)nc2c1-c1ccccc1	inactive: -18.7%	
CCc1ccc(NS(=O)(=O)c2ccc3oc(=O)c4ncn(CC)c4c3c2)cc1	inactive: -15.8%	
CCn1c(SCc2ccccc2C)nc(=O)c2c(C(=O)OC)cc(C3CC3)nc21	inactive: -11.2%	
CCN(c1cccc(C)c1)S(=O)(=O)c1ccc(-n2cccn2)cc1	inactive: 2.55%	
Cc1[nH]n(-c2ccccc2)c(=O)c1C(c1cc(Cl)ccc1O)c1c(C)[nH]n(-c2ccccc2)c1=O	inactive: 5.52%	
COCc1cc(C)nc2sc3c(c12)NC(c1ccccc1C(=O)O)N(c1cccc(C(F)(F)F)c1)C3=O (stereo not drawn)	inactive: -10.6%	
COc1ccc(-c2noc(CN(C(=O)c3ccccc3Cl)C(C)C)n2)cc1	inactive: -0.73%	
Cc1c(C(=O)Nc2ccc(F)cc2F)oc2c1-c1nn(Cc3c(F)cccc3Cl)cc1CC2	inactive: 88.7%	
Cc1ccc(-n2cnc3cc(C(=O)NCCC4=CCCCC4)ccc32)c(C)c1	inactive: -13.5%	
COc1ccccc1Oc1nc2c(c(=O)n(C)c(=O)n2C)n1Cc1cccc(Br)c1	inactive: -9.92%	
Cc1ccc(Cl)cc1N1CCN(C(=O)c2cc(S(=O)(=O)N3CCC(C)CC3)cn2C)CC1	inactive: -7.62%	
COc1ccc(NC(=O)N(CCC(C)C)C(C)c2cccs2)c(OC)c1 (stereo not drawn)	inactive: -3.17%	
Cc1ccc(CCNC(=O)c2ccc3c(c2)N(Cc2ccccc2F)C(=O)c2ccccc2S3=O)cc1 (stereo not drawn)	inactive: -6.19%	
CCc1ccccc1NC(=O)[C@H](Cc1ccccc1)N1Cc2ccccc2C1=O	inactive: -6.67%	
Cc1ccc(C)c(C(=O)N2CCC(c3nc4c(nnn4Cc4ccccc4)c(=O)[nH]3)CC2)c1	inactive: -19.8%	
COc1cccc(NC(=O)Cn2c(=O)n(Cc3ccccc3)c(=O)c3c4c(sc32)CN(C(C)=O)CC4)c1	inactive: 2.23%	
Cc1ccc(N2CCN(C(=O)c3nn(C)c4c3CS(=O)(=O)c3ccccc3-4)CC2C)cc1 (stereo not drawn)	inactive: -7.73%	
Cc1nc2c(-c3ccccc3)c(C)nn2c(C)c1CCC(=O)N1CCN(c2ccccc2)CC1	inactive: -7.22%	
